Patent US20260297081A1, “COMPOUNDS AND METHODS OF TREATING CANCERS” (Cullgen Inc., priority 2023, published 2026)
At least one read-out could not be matched to a standard name with certainty.

Test system: CyclinD1 (CCND1)
Assay: Cyclin D1 (CCND1) percentage degradation in Calu-1 cells (Table 6)
Type: cell-based
Conditions: 16 hours

| SMILES | CyclinD1 Degradation (40 nM) | CyclinD1 Degradation (200 nM) |
| --- | --- | --- |
| CNc1ccc(C(=O)Nc2cccc(C)n2)c(NC2CC(NC(=O)CN3CCN(c4ccc(Nc5ncc6c(C)c(C(C)=O)c(=O)n(C7CCCC7)c6n5)nc4)CC3)C2)n1 (stereo not shown) [CPD-196, 2-((3-(2-(4-(6-((6-acetyl-8-cyclopentyl-5-methyl-7-oxo-7,8-dihydropyrido[2,3-d]pyrimidin-2-yl)amino)pyridin-3-yl)piperazin-1-yl)acetamido)cyclobutyl)amino)-6-(methylamino)-N-(6-methylpyridin-2-yl)nicotinamide] | D (degradation activity <30%) | A (degradation activity >80%) |
| CNc1ccc(C(=O)Nc2cc(C)n(C)n2)c(NC2CC(NC(=O)CN3CCN(c4ccc(Nc5ncc6c(C)c(C(C)=O)c(=O)n(C7CCCC7)c6n5)nc4)CC3)C2)n1 (stereo not shown) [CPD-197, 2-((3-(2-(4-(6-((6-acetyl-8-cyclopentyl-5-methyl-7-oxo-7,8-dihydropyrido[2,3-d]pyrimidin-2-yl)amino)pyridin-3-yl)piperazin-1-yl)acetamido)cyclobutyl)amino)-N-(1,5-dimethyl-1H-pyrazol-3-yl)-6-(methylamino)nicotinamide] | D (degradation activity <30%) | A (degradation activity >80%) |
| CNc1ccc(C(=O)Nc2cc(C)on2)c(NC2CC(NC(=O)CN3CCN(c4ccc(Nc5ncc6c(C)c(C(C)=O)c(=O)n(C7CCCC7)c6n5)nc4)CC3)C2)n1 (stereo not shown) [CPD-198, 2-((3-(2-(4-(6-((6-acetyl-8-cyclopentyl-5-methyl-7-oxo-7,8-dihydropyrido[2,3-d]pyrimidin-2-yl)amino)pyridin-3-yl)piperazin-1-yl)acetamido)cyclobutyl)amino)-6-(methylamino)-N-(5-methylisoxazol-3-yl)nicotinamide] | D (degradation activity <30%) | A (degradation activity >80%) |
| CC(=O)c1c(C)c2cnc(Nc3ccc(N4CCN(CC(=O)NC5CC6(C5)CC(Nc5nc(NC(C)C)ccc5C(=O)Nc5cc(C)on5)C6)CC4)cn3)nc2n(C2CCCC2)c1=O (stereo not shown) [CPD-199, 2-((6-(2-(4-(6-((6-acetyl-8-cyclopentyl-5-methyl-7-oxo-7,8-dihydropyrido[2,3-d]pyrimidin-2-yl)amino)pyridin-3-yl)piperazin-1-yl)acetamido)spiro[3.3]heptan-2-yl)amino)-6-(isopropylamino)-N-(5-methylisoxazol-3-yl)nicotinamide] | A (degradation activity >80%) | A (degradation activity >80%) |
| CNc1ccc(C(=O)Nc2ccc(N(C)C)nn2)c(NC2CCN(C(=O)CN3CCN(c4ccc(Nc5ncc6c(C)c(C(C)=O)c(=O)n(C7CCCC7)c6n5)nc4)CC3)CC2)n1 [CPD-200, 2-((1-(2-(4-(6-((6-acetyl-8-cyclopentyl-5-methyl-7-oxo-7,8-dihydropyrido[2,3-d]pyrimidin-2-yl)amino)pyridin-3-yl)piperazin-1-yl)acetyl)piperidin-4-yl)amino)-N-(6-(dimethylamino)pyridazin-3-yl)-6-(methylamino)nicotinamide] | A (degradation activity >80%) | A (degradation activity >80%) |
| CNc1ccc(C(=O)Nc2ccc(N(C)C)nn2)c(NC2CCN(C(=O)CN3CCN(c4ccc(Nc5ncc6c(C)c(C(C)=O)c(=O)n(C7CCCC7)c6n5)nc4)CC3)C2)n1 (stereo not shown) [CPD-201, 2-((1-(2-(4-(6-((6-acetyl-8-cyclopentyl-5-methyl-7-oxo-7,8-dihydropyrido[2,3-d]pyrimidin-2-yl)amino)pyridin-3-yl)piperazin-1-yl)acetyl)pyrrolidin-3-yl)amino)-N-(6-(dimethylamino)pyridazin-3-yl)-6-(methylamino)nicotinamide] | C (30%< degradation activity <50%) | A (degradation activity >80%) |
| CNc1ccc(C(=O)Nc2ccc(N(C)C)nn2)c(NC2CC(Cn3cc(CN4CCN(c5ccc(Nc6ncc7c(C)c(C(C)=O)c(=O)n(C8CCCC8)c7n6)nc5)CC4)nn3)C2)n1 (stereo not shown) [CPD-202, 2-((3-((4-((4-(6-((6-acetyl-8-cyclopentyl-5-methyl-7-oxo-7,8-dihydropyrido[2,3-d]pyrimidin-2-yl)amino)pyridin-3-yl)piperazin-1-yl)methyl)-1H-1,2,3-triazol-1-yl)methyl)cyclobutyl)amino)-N-(6-(dimethylamino)pyridazin-3-yl)-6-(methylamino)nicotinamide] | A (degradation activity >80%) | A (degradation activity >80%) |
| CNc1ccc(C(=O)Nc2ccc(N(C)C)nn2)c(NC2CCN(C(=O)CCN3CCN(c4ccc(Nc5ncc6c(C)c(C(C)=O)c(=O)n(C7CCCC7)c6n5)nc4)CC3)CC2)n1 [CPD-203, 2-((1-(3-(4-(6-((6-acetyl-8-cyclopentyl-5-methyl-7-oxo-7,8-dihydropyrido[2,3-d]pyrimidin-2-yl)amino)pyridin-3-yl)piperazin-1-yl)propanoyl)piperidin-4-yl)amino)-N-(6-(dimethylamino)pyridazin-3-yl)-6-(methylamino)nicotinamide] | A (degradation activity >80%) | A (degradation activity >80%) |
| CNc1ccc(C(=O)Nc2ccc(N(C)C)nn2)c(NC[C@H]2CC[C@H](CCC(=O)N3CCN(c4ccc(Nc5ncc6c(C)c(C(C)=O)c(=O)n(C7CCCC7)c6n5)nc4)CC3)CC2)n1 [CPD-204, 2-(((trans-4-(3-(4-(6-((6-acetyl-8-cyclopentyl-S-methyl-7-oxo-7,8-dihydropyrido[2,3-d]pyrimidin-2-yl)amino)pyridin-3-yl)piperazin-1-yl)-3-oxopropyl)cyclohexyl)methyl)amino)-N-(6-(dimethylamino)pyridazin-3-yl)-6-(methylamino)nicotinamide] | D (degradation activity <30%) | A (degradation activity >80%) |
| CC(=O)c1c(C)c2cnc(Nc3ccc(N4CCN(CC(=O)NCC5CC(Nc6nc(NC(C)C)ccc6C(=O)Nc6cc(C)n(C)n6)C5)CC4)cn3)nc2n(C2CCCC2)c1=O (stereo not shown) [CPD-205, 2-((3-((2-(4-(6-((6-acetyl-8-cyclopentyl-5-methyl-7-oxo-7,8-dihydropyrido[2,3-d]pyrimidin-2-yl)amino)pyridin-3-yl)piperazin-1-yl)acetamido)methyl)cyclobutyl)amino)-N-(1,5-dimethyl-1H-pyrazol-3-yl)-6-(isopropylamino)nicotinamide] | A (degradation activity >80%) | A (degradation activity >80%) |
| [2H]C([2H])([2H])Nc1ccc(C(=O)Nc2cc(C)n(C)n2)c(NC2CC(CNC(=O)CN3CCN(c4ccc(Nc5ncc6c(C)c(C(C)=O)c(=O)n(C7CCCC7)c6n5)nc4)CC3)C2)n1 (stereo not shown) [CPD-206, 2-((3-((2-(4-(6-((6-acetyl-8-cyclopentyl-5-methyl-7-oxo-7,8-dihydropyrido[2,3-d]pyrimidin-2-yl)amino)pyridin-3-yl)piperazin-1-yl)acetamido)methyl)cyclobutyl)amino)-N-(1,5-dimethyl-1H-pyrazol-3-yl)-6-((methyl-d3)amino)nicotinamide] | A (degradation activity >80%) | A (degradation activity >80%) |
